Laboratory results as given in ChEMBL document CHEMBL4888484, “Replenishing the malaria drug discovery pipeline: Screening and hit evaluation of the MMV Hit Generation Library 1 (HGL1) against asexual blood stage Plasmodium falciparum ,using a nano luciferase reporter read-out” (2022).
Out of some 150,000 compounds screened, about 540 (0.36%) showed an effect of 50% or more. The list shows a part of the results.

system: Plasmodium falciparum; assay: Primary screen in NF54 nanoGlo assay, in single point, at 2uM, 72h; a lower Z score goes with more inhibition; type: functional, Erythrocyte; settings: timepoint 72 hour

| Compound | % Inhibition [%] | Z score |
| --- | --- | --- |
| O=C(Nc1nc(-c2ccc(F)c(Cl)c2)cs1)C1CCN(C2CC2)CC1 | -7 | 0.95 |
| C=CCc1cc(CNCCN2CCC[C@H](CO)C2)ccc1OC | -4 | 0.64 |
| COc1ccccc1CN(C)c1nc2ccccc2s1 | 3 | -0.26 |
| CC(=O)N1CC[C@](C)(C(=O)Nc2cn(C)nc2C)C1 | 9 | -1.55 |
| O=C(c1ccnnc1)N1CC[C@@](O)(c2ccccc2)[C@H]2CCCC[C@@H]21 | -4 | 0.35 |
| NC(=NCCOc1ncc(Cl)cc1Cl)N1CCOCC1 | -11 | 1.79 |
| CN1CC[C@@]2(CCCN(c3nc4ccccc4s3)C2)C1 | -5 | 0.97 |
| CC(=O)OCC(OC(C)=O)C(OC(C)=O)C(OC(C)=O)C(=O)Nc1ccccc1 (stereo not given) | -16 | 3.07 |
| CC(C)[C@@H](CO)NC(=O)c1ccc(F)cc1O | 10 | -1.4 |
| Cc1c(C(=O)N2CC[C@H](CC(C)(C)C)C2(C)C)nnn1-c1cnn(C)c1 | 36 | -4.89 |
| CCO[C@H]1C[C@@H](NC(=O)c2cc(C)n(C(F)F)n2)C1 | -8 | 0.93 |
| O=C(CNC(=O)c1cccs1)Nc1n[nH]c2c(Cl)cccc12 | -2 | 0.17 |
| CC(=O)Nc1nc(CN(C)CCOc2ccccc2Cl)cs1 | 6 | -1.06 |
| C[C@H](O)CN(Cc1c(-c2ccccc2)nn(C)c1Oc1ccccc1Cl)CC1CC1 | -2 | 0.33 |
| CN(CC(=O)NC(c1ccccc1)c1ccccc1)S(=O)(=O)c1ccc2c(c1)c(=O)n(C)c(=O)n2C | -10 | 1.21 |
| CCN1CCN(c2nc3ncn(CC(=O)NCCc4ccc(Cl)cc4)c(=O)c3s2)CC1 | 49 | -1.76 |
| COc1nc(OC)nc(-c2ccc(C(N)=O)cc2)n1 | -15 | 2.03 |
| Cn1cccc(C(=O)N2C3CCC2CC(n2ccnc2)C3)c1=O (stereo not given) | -14 | 1.74 |
| Cn1cc(C(=O)N2C3C=CCC2CC3)nn1 (stereo not given) | -1 | 0.15 |
| COc1ccc(-c2ccccc2-c2nnc(C)s2)c(OC)c1OC | -3 | 0.48 |
| O=C(NCC1CCC2(CCCCC2)O1)N1CCOC(C2CCC2)C1 (stereo not given) | 3 | -0.47 |
| Cc1ccc(NS(=O)(=O)c2c(C)c(C)cc3c(C)c(C(=O)N4CCOCC4)oc23)cc1 | 5 | -0.63 |

| Compound | % Inhibition [%] | Z score |
| --- | --- | --- |
| CNS(=O)(=O)c1ccc(Cl)cc1 | -11 | 1.64 |
| COCCN(C)Cc1ccc(CC2CCN(C(=O)c3ccc(C)nc3O)CC2)cc1 | -3 | 0.57 |
| Cc1cc(Cl)cc2c1OCCC[C@@H]2NCc1cnc2n1CCCC2 | -3 | 0.66 |
| O=C(NCc1cc2n(n1)CCN(C1CCCCC1)C2)c1ccncc1 | 3 | -0.52 |
| c1ccc(-n2ncc(CN3CCCC4CCCCC43)n2)cc1 (stereo not given) | 1 | -0.04 |
| O=S(=O)(Cc1ccon1)N1CCN(Cc2nccn2C(F)F)CC1 | -13 | 1.83 |
| O=C(NCCc1cncnc1)N1CCOc2cccc(Br)c2C1 | -3 | 0.66 |
| CCN(CC)C(=O)Cn1c(=O)n(Cc2ccc(C(=O)NCCc3ccc(OC)c(OC)c3)cc2)c(=O)c2ccccc21 | 0 | -0.05 |
| CC(=O)N(CCc1noc(C2CCC2)n1)[C@H]1CCN(C(=O)c2ccnnc2)C1 | -1 | 0.19 |
| COc1ccccc1CNC1=NCCNC12CCN(S(=O)(=O)c1cc(C)ccc1C)CC2 | -5 | 0.6 |
| CC[C@H](Oc1ccccc1C)c1nnc(Cc2cn3ccccc3n2)o1 | -8 | 1.28 |
| CC(C)=CCC[C@@]1(C)CCC(=O)N(CCc2c[nH]cn2)C1 | 1 | -0.13 |
| CC(C)c1ccc(-c2nc(CNc3cc4c(cc3Cl)NC(=O)CO4)cs2)cc1 | 35 | -4.78 |
| CCN1CCN(CCNC(=O)c2ccc(NC(=O)c3nnc(COC)s3)cc2)CC1 | 0 | 0.04 |
| Cc1ccccc1OC[C@@H](O)Cn1nc2c(cc1=O)CCC2 | -4 | 0.6 |
| CN(Cc1cccc(Cl)c1Cl)S(=O)(=O)[C@H]1CCOC1 | -5 | 0.45 |
| COc1ccc(F)c(-c2nc(C3CCC3)n[nH]2)c1 | -2 | 0.29 |
| CC(C)N(C)c1ccccc1NC(=O)CN(C)C(=O)c1cccs1 | -10 | 1.3 |
| CCc1nocc1CN1CCO[C@@H](CNc2nccn(C)c2=O)C1 | -6 | 1.27 |
| CN(Cc1cnc(N)nc1)c1ncc2c(n1)CCN2c1ccccc1 | -8 | 1.4 |
| CC[C@H](C)N(Cc1csc(COc2cccc(C)c2)n1)C(=O)c1cccc(OC)c1 | -11 | 1.29 |
| CN(CC1CCCC1O)C(=O)c1cc(F)c(Cl)cc1Cl (stereo not given) | -8 | 0.79 |

| Compound | % Inhibition [%] | Z score |
| --- | --- | --- |
| Cc1nc([C@H](C)NC(=O)c2ccc3ncsc3c2)n[nH]1 | -9 | 1.23 |
| C=CCN1CCc2c(c(C(=O)N(C)Cc3cscn3)nn2Cc2ccccc2)C1 | -14 | 1.58 |
| CC1CCCC1CC(=O)N1C[C@@H]2[C@H](C1)[C@H]2NC(=O)c1conc1C1CC1 (stereo not given in full) | -4 | 0.57 |
| CCc1ccccc1C(=O)NC1CCC(N2C(=O)CCC2=O)CC1 (stereo not given) | -8 | 1.09 |
| CC(C)(C#N)c1nc(Cc2ccc(F)c(Br)c2)no1 | -18 | 1.52 |
| c1ccc(-c2nnc([C@H]3CCN(CC4CCCCC4)C3)o2)cc1 | -8 | 1.17 |
| Cc1cccc(N2CCOC3(CCOCC3)C2)n1 | -8 | 0.73 |
| COc1ccc(CCc2nc(NC(=O)c3cc(-c4ccc(OC)cc4)nn3C)n[nH]2)cc1 | -4 | 0.75 |
| CCc1cccc(-n2c([C@H]3CC(=O)N(Cc4ccccc4)C3)n[nH]c2=O)c1 | -8 | 1.51 |
| O=C(NCc1cncc(-c2ccco2)c1)Nc1cccnc1 | 9 | -1.23 |
| Cc1ccc(Br)c(NC(=O)NCC(F)(F)F)c1 | -11 | 1.48 |
| CC[C@@H](CNC(=NC)NCc1noc(C)n1)Oc1ccccc1 | -3 | 0.32 |
| O=C(C1=Cc2ccccc2OC1)N1CCN(c2cccc(C(F)(F)F)c2)CC1 | -3 | 0.29 |
| CC(C)(C)n1nc(-c2ccco2)nc1[C@@H]1C[C@@H](O)CN1 | -6 | 0.74 |
| CCC[C@H]1CCN(C2CCN(c3cccc(N4CCCC4=O)c3)CC2)C1 | -9 | 1.21 |
| CCc1cc2c(N3CCCC4(C3)OCCO4)ncnc2s1 | -7 | 1.23 |
| C[C@]1(/[N+]([O-])=C/c2ccc(F)cc2)CCCCC1=O | 13 | -1.5 |
| CN1CCCN(C(=O)CCc2ccc3c(ccn3C)c2)CC1 | -3 | 0.55 |
| CCC[C@H]1CN(S(=O)(=O)N2CCC(C)(C)CC2)C[C@@H]1NC(C)=O | 5 | -1.03 |
| Cc1nnc(CN(C)Cc2csc(C(C)(C)O)n2)s1 | 2 | -0.28 |
| CN1CCOC(C(=O)NC(c2c(F)cccc2F)C(F)(F)F)C1 (stereo not given) | 36 | -4.79 |
| O=C(CCc1nnc2ccc(N3CCOCC3)nn12)Nc1cccnc1 | -14 | 2.33 |

| Compound | % Inhibition [%] | Z score |
| --- | --- | --- |
| CC(=O)Oc1c(C)cc(CN2C[C@H](O)[C@@H](N3CCN(C)CC3)C2)cc1C | -8 | 1.04 |
| COc1ccc(C(=O)N[C@H]2CCC23CCOCC3)cn1 | 10 | -1.35 |
| CC(=O)N(c1nc(CN2C[C@H](C)Oc3cc(C)c(Br)cc32)cs1)C1CC1 | 1 | -0.24 |
| CCc1cccc(C)c1Nc1c(-c2c[nH]c3ccccc23)nc2cnccn12 | -6 | 0.61 |
| CC(C)c1nc(CN2CCC(=O)N(C)c3cc(F)ccc32)n[nH]1 | -12 | 1.54 |
| CCOC(=O)[C@]12CCCN[C@@H]1CCN(c1nc3c(c(NC)n1)CCC3)C2 | -12 | 1.12 |
| Cn1c(CNC2CCCC2Cc2ccccc2)nnc1C1CC1 (stereo not given) | 3 | -0.38 |
| CC(C)[C@H](C)NC(=O)CNCCn1cccn1 | -3 | 0.55 |
| NC(=O)CCOc1ccccc1NCc1cccc(-c2ccncc2)c1 | -7 | 0.67 |
| CCc1nc(C)c(C(=O)N2CCc3[nH]cnc3[C@H]2c2cccnc2)s1 | -1 | 0.18 |
| CC(C)c1nccc(NCCc2ccc[nH]2)n1 | -5 | 0.79 |
| CC1(C)C[C@H](NC(=O)c2cnnn2-c2cccc(F)c2)CO1 | -6 | 0.95 |
| COc1ccc(OC)c(C2=NS(=O)(=O)N(C)C(C(=O)N3CCCCC3)=C2)c1 | -6 | 1.2 |
| O=C1C[C@H](Nc2nccc(C(F)(F)F)n2)CN1CC(F)(F)F | -18 | 2.5 |
| CC(C)C(=O)N1CCC([C@@H]2CN(C3CCOCC3)C[C@H]2COc2ccccc2)CC1 | -11 | 1.29 |
| Cc1cccc2cc(-c3noc(-c4ccccc4)n3)c(N3CCOCC3)nc12 | -18 | 3.34 |
| FC(F)(F)C1CCCC(c2nnc(-c3ccccn3)o2)C1 (stereo not given) | -14 | 1.5 |
| CN1CCN(c2ccncc2NC(=O)c2ccc(Nc3ccn(C)n3)cc2)CC1 | -11 | 1.18 |
| CCN(CC)c1nc(-c2ccc(F)cc2)ncc1C(=O)N1CCOCC1 | -23 | 2.92 |
